From the supplement of paper PMC11417369 come the findings set out here.

± gives the standard deviation of the averaged measurements. This is one part of the list.

For the experiment, the system named is PfAP2-EXP AP2 domain (GST-tagged). Nature of the experiment: gcPBM binding intensity (ln(normalized median fluorescence intensity)); higher = stronger DNA binding. In a few lines: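 An Agilent 4 × 180k array of primer-extended double-stranded 36-bp intergenic genomic probes, with negative controls, was incubated for 1 h with GST-tagged P. falciparum DNA-binding domains expressed in E. coli. Alexa488 anti-GST antibody detected bound protein, scanned at 488 nm. Binding intensity is the highest Masliner-normalised natural-log median intensity across replicate spots of either probe orientation.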
For the sequence “TTTAATTCTTATATTTGTACAGATTCATAATTAAAT [XGTACX_site7465]”, the “gcPBM binding intensity (ln)” value turned out to be 8.41 ± 0.37. As for “CGTTTATTAAACTTGACACACACACCCCCACATATA [CACACA_site8151]”, the “gcPBM binding intensity (ln)” value stood at 9.69 ± 0.31.

In the case of “TATATATATATATATGCATGCCATATGATATATATA [TGCATGCA_site109]”, the “gcPBM binding intensity (ln)” value worked out at 10.3 ± 0.27.

Regarding “AATCGATAACAATGTAGTACCAGAAAAATAAATATT [XGTACX_site8501]”, the “gcPBM binding intensity (ln)” value was determined as 8.99 ± 0.3. The result for “ACATATCGGGTGCATTAACACACATTTATTTGAATA [CACACA_site8736]” reads 9.19 ± 0.86; that for “ATTATATCACTGTGTTGTACTTCTTATATAAAAATA [XGTACX_site2333]”, 8.91 ± 0.43. As for “TCCGTATAATTTTGCACACGAATATAAATTTGATAA [CACACA_site136]”, the “gcPBM binding intensity (ln)” value was found to be 8.94 ± 0.26.

“ATAAAAATAAAATGGACACACATATATACATATTTG [CACACA_site3277]”: the “gcPBM binding intensity (ln)” value came out at 8.4 ± 0.37. For “AATTATAATAAATAACGTACAAAAAATAAATTATTT [XGTACX_site3627]”, the “gcPBM binding intensity (ln)” value was 8.55 ± 0.35. On to “TTTTTTTTTGATATTTGTACTTAAGTAAATATTATA [XGTACX_site3843]”, for which the “gcPBM binding intensity (ln)” value was 8.51 ± 0.27.

Take “TATATATTCATGTGTACACACAAAAAAAAATAAAGT [CACACA_site2207]”: the “gcPBM binding intensity (ln)” value stood at 8.96 ± 0.35. On to “ATAAGCGAATATATATCACACACAAAAAAATCAGAC [CACACA_site8657]”, for which the “gcPBM binding intensity (ln)” value was 9.26 ± 0.36. For “ATATTACACAGATATGCACACATTGTAGTTATTTAT [CACACA_site5454]”, the “gcPBM binding intensity (ln)” value was found to be 8.61 ± 0.3. Turning to “AAAAAGGAAATTTACACACACATATAACATACATTA [CACACA_site7534]”, the “gcPBM binding intensity (ln)” value amounted to 8.62 ± 0.52.

On to “TTTTTTTTCTAAATTATATGAAAATATATGTTATGT [GTGCAC_negctrl_site85]”, for which the “gcPBM binding intensity (ln)” value was 8.12 ± 0.38. As to “ATTTTCTATTTTATTTGTACGTAATTTAATTTTTTT [XGTACX_site3609]”, the “gcPBM binding intensity (ln)” value turned out to be 8.96 ± 0.56. As to “ACAATTTTAAAATGAACACACATGTTTTTCTTACTT [CACACA_site1014]”, the “gcPBM binding intensity (ln)” value was 8.68 ± 0.5. Then “TACATAAACATTTATACACACATTATAAATACATAT [CACACA_site4386]”, with 8.53 ± 0.45; and “ATAAATCCATGTAACTGTACTTTTTTTTTTTTTTTT [XGTACX_site7373]”, with 8.82 ± 0.028. Regarding “ATAAAGATTAATAAAATAAAATTCCGCAAACATATA [CACACA_negctrl_site244]”, the “gcPBM binding intensity (ln)” value came to 8.5 ± 0.47.

Take “TTTTGAAATTTTTGTGTTTTTCCTTTTTATTTTATA [CACACA_negctrl_site1740]”: the “gcPBM binding intensity (ln)” value was determined as 8.48 ± 0.49. Then “TCCCAATTTCTATCCTGTACAGACATAAATATATAC [XGTACX_site5937]”, with 9.06 ± 0.53; and “AAGTAATTTGTTGACACACACACACGCATACCTATA [CACACA_site7140]”, with 8.71 ± 0.34; and “AATGTAATATAAATATGTACATATAAACTATATATA [XGTACX_site6871]”, with 8.55 ± 0.37. Take “ATTATATATATATATATATATATATATATATTATAT [CACACA_negctrl_site234]”: the “gcPBM binding intensity (ln)” value came out at 8.74 ± 0.071. For the sequence “GTTTTAAAACAAATATGTACACATAATATAGGAAAG [XGTACX_site1803]”, the “gcPBM binding intensity (ln)” value is 9.07 ± 0.3.

As for “ACTTATGATTTATTTTGTACATATATACTATTCCTG [XGTACX_site5275]”, the “gcPBM binding intensity (ln)” value came to 9.11 ± 0.35.

On to “GCTCCTTTTACCATCGCACACGATAAAAAAAAATAA [CACACA_site3255]”, for which the “gcPBM binding intensity (ln)” value worked out at 8.88 ± 0.38. For the sequence “ACAAATACTAACAACGCATGTAAGCCTACAATAAAT [TGCATGCA_site551]”, the “gcPBM binding intensity (ln)” value came out at 8.91 ± 0.33. Then “ATCCTCTTTTTAAGTTGTACAGGGTCGAAAAAAAAA [XGTACX_site6852]”, with 8.64 ± 0.57; and “GATTATTATTATAAGGGTACAAATATTTAATAAAAA [XGTACX_site7144]”, with 8.74 ± 0.4. For the sequence “AAAAAAAAATAAAAAAGTACATTCATTTTATAAGAT [XGTACX_site3507]”, the “gcPBM binding intensity (ln)” value was found to be 8.41 ± 0.42.

For the sequence “CATGTCAAAATTATACGTACATATATAAGTTCCATT [XGTACX_site6331]”, the “gcPBM binding intensity (ln)” value amounted to 8.65 ± 0.33. Then “AGATAGCTATTAAAAAGTACAAAAAAATATATATAT [XGTACX_site6289]”, with 9.31; and “TATACAGGAATATTTTTACACACTAATAATTATAAA [CACACA_site8477]”, with 8.25 ± 0.44; and “TATTTACAACAAATTTAATTATTTTTAACTTATAAA [GTGCAC_negctrl_site259]”, with 7.93 ± 0.32. On to “TATTTTATATAAAGGTGTACTTATACAAAAATATAT [XGTACX_site7435]”, for which the “gcPBM binding intensity (ln)” value stood at 8.56 ± 0.22. Take “ATAAATACAGATATTACACACTTCTTATTCTAAGAA [CACACA_site5640]”: the “gcPBM binding intensity (ln)” value came out at 8.21 ± 0.52.

On to “TTTTTTTTTTTTGAGTGTACAAGATTGTTGTTCCAA [XGTACX_site6120]”, for which the “gcPBM binding intensity (ln)” value was found to be 8.37 ± 0.57. For the sequence “TTTTTTCAAATTATTCGATATGTAAAAAAATAAAAT [GTGCAC_negctrl_site241]”, the “gcPBM binding intensity (ln)” value came to 8.21 ± 0.49. In the case of “AAATATTTGTGTGGTTGTACTATAATGATAAAAATA [XGTACX_site7703]”, the “gcPBM binding intensity (ln)” value is 8.81 ± 0.4. “TTATATTATATATATATTATATATATGTATGCATAA [TGCATGCA_negctrl_site481]”: the “gcPBM binding intensity (ln)” value was 8.29 ± 0.39. For the sequence “CATACATACAAACACACACACATATATATATATATA [CACACA_site43]”, the “gcPBM binding intensity (ln)” value amounted to 10.1 ± 0.16. In the case of GGTTTGAATTTTTAAGTGCATATAACATAAATGAAA, the “gcPBM binding intensity (ln)” value was 8.65 ± 0.2. Then “TTTGTAGATTTTGTAACACACACATATATATACATA [CACACA_site8757]”, with 8.45 ± 0.35; and “TATGCACCCAGACACACACACACAACTAAAAAATAA [CACACA_site2567]”, with 8.64 ± 0.38; and “TCTTTCTATTTATAATGTACTCAAAATTATTCTATA [XGTACX_site4867]”, with 8.6 ± 0.36. In the case of “TACCATTATTTTAAGTGTACATACTAATTTATATAT [XGTACX_site6548]”, the “gcPBM binding intensity (ln)” value was determined as 8.61 ± 0.28. Turning to “AAAATATAATATATTGCACACAAAAAGTGAATTATT [CACACA_site8489]”, the “gcPBM binding intensity (ln)” value worked out at 8.54 ± 0.33. Consider “CCTTGCATTTATTATACACACACAAAAAAATATATA [CACACA_site7964]”, for which the “gcPBM binding intensity (ln)” value came to 8.77 ± 0.17.

As for “TTTTACCACTAAAAATGTACAAAAAAAAAAAAAAAA [XGTACX_site4226]”, the “gcPBM binding intensity (ln)” value was 7.92 ± 0.43. Consider “AAATTGTGTGAAATATATTAATATTATTATTATTAT [TGCATGCA_negctrl_site189]”, for which the “gcPBM binding intensity (ln)” value came to 8.29 ± 0.32. For the sequence “TTGCAAATATATGGTTGTACTCAAAAAAAAAAAAAA [XGTACX_site6975]”, the “gcPBM binding intensity (ln)” value worked out at 8.26 ± 0.42. Then “CAAAAATAACGAGTCAAACACACATATATATATATA [CACACA_site2038]”, with 10.1 ± 0.24; and “AAAGGGATAACACCAAAAAAAATAAAAATAAAAATA [GTGCAC_negctrl_site680]”, with 8.61 ± 0.54. For the sequence “TCAAGAATTTTAAAGAGTACATAAAACAATAATATA [XGTACX_site3923]”, the “gcPBM binding intensity (ln)” value came to 8.69 ± 0.4.
